In the antibiotic and cytotoxicity screens of Wong et al. (2023) one finds cytotoxicity call data, which are given here for 40 compounds.

This is one part of the list.

For the test, the system named is HSkMC (human skeletal muscle cells). Briefly: cytotoxicity call (relative viability < 0.9). The following applies: 10 µM.
As for `COc1ccc(S(=O)(=O)N(C)C[C@@H]2Oc3ccc(NC(=O)Nc4c(C)noc4C)cc3CC(=O)N([C@H](C)CO)C[C@@H]2C)cc1`, the cytotoxicity call was “inactive”.

`C[C@H](CO)N1C[C@H](C)[C@@H](CN(C)Cc2ccc(Oc3ccccc3)cc2)Oc2ccc(NC(=O)Nc3ccc(F)cc3)cc2CC1=O`: the cytotoxicity call is “inactive”.

Regarding `Cc1ccc(S(=O)(=O)Nc2ccc3c(c2)C(=O)N([C@H](C)CO)C[C@@H](C)[C@@H](CN(C)Cc2ccc(Cl)c(Cl)c2)O3)cc1`, the cytotoxicity call is “active”.

As for `COc1cccc(S(=O)(=O)N(C)C[C@@H]2Oc3ncc(C#Cc4cccc(F)c4)cc3C(=O)N([C@H](C)CO)C[C@@H]2C)c1`, the cytotoxicity call is “inactive”.

In the case of `C[C@@H]1CN([C@H](C)CO)C(=O)c2cc(NS(=O)(=O)c3cccs3)ccc2O[C@@H](C)CCCCO[C@@H]1CN(C)Cc1ccc(C(=O)O)cc1`, the cytotoxicity call is “inactive”.

Take `COc1ccc(C(=O)CO)cc1`: the cytotoxicity call was “inactive”.

On to `Cc1ccccc1-c1ccc2c(c1)O[C@@H](CN(C)C(=O)Nc1ccc(C(F)(F)F)cc1)[C@H](C)CN([C@H](C)CO)S2(=O)=O`, for which the cytotoxicity call is “inactive”.

In the case of `CN(C)CCCNC(=O)C[C@@H]1CC[C@@H]2[C@H](COc3ccc(NC(=O)c4cccc(F)c4)cc3C(=O)N2C)O1`, the cytotoxicity call is “inactive”.

With `Cl.NC(=O)CCC(N)C(=O)O` (stereo not given), the cytotoxicity call is “inactive”.

As for `C[C@H]1CN([C@@H](C)CO)C(=O)c2cccc(NS(=O)(=O)c3cccs3)c2O[C@@H]1CN(C)Cc1ccc(Oc2ccccc2)cc1`, the cytotoxicity call is “inactive”.

In the case of `Nc1ncnc2nc(N3CCCCC3)[nH]c12`, the cytotoxicity call was “inactive”.

Turning to `CCOC(=O)CCC(=O)OC1C(OC2C(C)C(OC3CC(C)(OC)C(O)C(C)O3)C(C)C(=O)OC(CC)C(C)(O)C(O)C(C)C(=O)C(C)CC2(C)O)OC(C)CC1N(C)C` (stereo not given), the cytotoxicity call was “inactive”.

`C[C@@H]1CN([C@H](C)CO)C(=O)c2cc(C#CC(C)(C)O)cnc2O[C@H]1CN(C)C(=O)CN(C)C`: the cytotoxicity call was “inactive”.

Turning to `Cc1noc(C)c1S(=O)(=O)Nc1ccc2c(c1)C(=O)N([C@@H](C)CO)C[C@@H](C)[C@H](CN(C)C)OCCCC[C@H](C)O2`, the cytotoxicity call is “inactive”.

Turning to `COc1ccc(S(=O)(=O)N2C[C@H](O)COC[C@@H]3O[C@H](CC(=O)N[C@@H]4CCN(Cc5ccccc5)C4)CC[C@H]32)cc1`, the cytotoxicity call is “inactive”.

Take `CCOC(=O)CCCCCC(=O)Nc1ccc2c(c1)C(=O)N([C@@H](C)CO)C[C@H](C)[C@H](CN(C)C(=O)Nc1ccc(F)cc1)OCCCC[C@H](C)O2`: the cytotoxicity call was “inactive”.

For `COc1ccccc1C(=O)Nc1ccc2c(c1)C(=O)N(C)[C@@H]1CC[C@@H](CC(=O)NCc3ccc(Cl)c(Cl)c3)O[C@@H]1CO2`, the cytotoxicity call is “inactive”.

In the case of `CN(C)C(=O)CN1CCC[C@]2(CCN(S(=O)(=O)c3cn(C)cn3)C2)C1`, the cytotoxicity call was “inactive”.

Regarding `C[C@H](CO)N1C[C@H](C)[C@@H](CN(C)C(=O)Cc2ccncc2)Oc2ncc(C#Cc3ccccc3F)cc2C1=O`, the cytotoxicity call is “inactive”.

For `COc1cccc(C(=O)Nc2ccc3c(c2)C(=O)N(C)[C@@H]2CC[C@H](CC(=O)NCC4CC4)O[C@@H]2CO3)c1`, the cytotoxicity call is “inactive”.

As to `COc1ccccc1S(=O)(=O)N[C@@H]1C=C[C@H](CC(=O)N2CCN(C)CC2)O[C@H]1CO`, the cytotoxicity call was “inactive”.

Turning to `C[C@@H]1CCCCO[C@H](CN(C)S(C)(=O)=O)[C@@H](C)CN([C@H](C)CO)C(=O)c2cc(N(C)C)ccc2O1`, the cytotoxicity call is “inactive”.

For `C[C@H](CO)N1C[C@H](C)[C@@H](CN(C)CC2CCCCC2)Oc2c(NC(=O)c3cnccn3)cccc2C1=O`, the cytotoxicity call is “inactive”.

In the case of `COc1ccc(S(=O)(=O)Nc2ccc3c(c2)CC(=O)N([C@@H](C)CO)C[C@H](C)[C@@H](CN(C)S(=O)(=O)c2cccs2)O3)cc1`, the cytotoxicity call was “inactive”.

Consider `COCCCNC(=O)[C@@]1(Sc2ccc(C)cc2)CC(=O)N(C2Cc3ccccc3C2)[C@@H]1c1ccc(CO)cc1I`, for which the cytotoxicity call was “inactive”.

As for `COc1ccc([Si](C)(C)[C@H]2[C@H](CCO)O[C@@]3(C(=O)N(Cc4ccccc4)c4ccc(N5C(=O)c6ccccc6Oc6ccccc65)cc43)[C@@H]2C)cc1`, the cytotoxicity call was “inactive”.

In the case of `C[C@H]1CN([C@@H](C)CO)C(=O)c2cc(NC(=O)C3CCCCC3)ccc2O[C@@H]1CN(C)Cc1ccc(C(F)(F)F)cc1`, the cytotoxicity call is “inactive”.

As to `NC(=S)Nc1ccncc1`, the cytotoxicity call was “inactive”.

For `CCS(=O)(=O)N1CC[C@]2(CC1)CN([C@@H](CO)c1c2c2ccc(cc2n1C)OC)C(=O)c1cccc(c1)F`, the cytotoxicity call is “inactive”.

As to `C[C@H]1CN([C@@H](C)CO)S(=O)(=O)c2ccc(Br)cc2O[C@@H]1CN(C)C(=O)CCN1CCCCC1`, the cytotoxicity call was “inactive”.

As to `Cc1ccc(S(=O)(=O)N(C)C[C@@H]2Oc3c(NC(=O)c4ccncc4)cccc3C(=O)N([C@@H](C)CO)C[C@H]2C)cc1`, the cytotoxicity call was “inactive”.

Turning to `C=CCOC(=O)C1=C[C@@H](c2cn(C(C)=O)c3ccccc23)C[C@@H](OCc2ccc(COC(=O)NCCCCCC(=O)NO)cc2)O1`, the cytotoxicity call was “inactive”.

For `COc1ccc(NC(=O)Nc2ccc3c(c2)[C@H]2C[C@H](CC(=O)N4CCN(C)CC4)O[C@@H](CO)[C@H]2O3)cc1`, the cytotoxicity call is “inactive”.

With `Cn1c(=O)c(F)c(Nc2ccc(I)cc2F)c2c(=O)n(C[C@@H](O)CO)cnc21`, the cytotoxicity call is “active”.

`C[C@H]1CN([C@@H](C)CO)C(=O)c2cc(NC(=O)Nc3cccc4ccccc34)ccc2O[C@@H]1CN(C)Cc1ccc2c(c1)OCO2`: the cytotoxicity call was “inactive”.

With `O=C(CN1CCOCC1)N[C@@H]1CC[C@H](CCNC(=O)C2CCCCC2)O[C@@H]1CO`, the cytotoxicity call was “inactive”.

For the compound `COc1ccc(NC(=O)Nc2ccc3c(c2)C(=O)N([C@H](C)CO)C[C@H](C)[C@@H](CN(C)S(=O)(=O)c2ccc(Cl)cc2)OCCCC[C@@H](C)O3)cc1`, the cytotoxicity call was “inactive”.

As for `CCNC(=O)C=Cc1cccc(Br)c1`, the cytotoxicity call was “inactive”.

With `C[C@@H]1CN([C@H](C)CO)C(=O)c2cc(NC(=O)Nc3ccc(C(F)(F)F)cc3)ccc2O[C@@H]1CN(C)Cc1ccncc1`, the cytotoxicity call is “inactive”.

`NC[C@@H]1CCCO1`: the cytotoxicity call was “inactive”.
